{"source": "paper PMC7819943", "about": "“Rice protein-binding microarrays: a tool to detect cis-acting elements near promoter regions in rice”", "note": "Some of the results follow.", "data": [{"biological_target": "T1, OsWOX13 (Oryza sativa, UniProt Q5QMM3 1-267)", "T1 sequence": "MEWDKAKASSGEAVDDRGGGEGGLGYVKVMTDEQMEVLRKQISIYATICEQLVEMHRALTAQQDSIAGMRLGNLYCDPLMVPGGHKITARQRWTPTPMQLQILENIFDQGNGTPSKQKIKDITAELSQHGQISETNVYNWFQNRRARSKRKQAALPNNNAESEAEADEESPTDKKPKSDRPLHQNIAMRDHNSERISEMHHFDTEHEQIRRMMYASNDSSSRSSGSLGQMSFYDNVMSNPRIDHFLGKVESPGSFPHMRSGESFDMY", "assay": "protein-binding microarray (RPBM); PBS, 2% BSA, 51.3 ng/ul salmon testes DNA, 50 uM zinc acetate, 200 nM TF, 25 C, 1 h; high values mean tight binding", "conditions": "protein: recombinant; tags: N-terminal polyhistidine and DsRed monomer fusion (pET32a); label: CyDye5-dUTP incorporated in the synthesized complementary strand; 3' TTTTT single-stranded linker to array surface; dsDNA, one strand shown", "in_short": "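Using Ni–NTA, transcription factors fused N-terminally to polyhistidine and DsRed were purified after expression in E. coli BL21-CodonPlus. These were incubated at 200 nM with a blocked, double-stranded custom Agilent array for 1 h at 25 °C in a buffer containing 50 µM zinc acetate, and the array was washed. The binding signal is per-feature fluorescence intensity (arbitrary units) on an Axon 4000B scanner.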", "values": [{"sequence": "TTGTATAATTTGATCAAGGTCCCTCCCGAACAGTTTCTCTCGGAGTCACCTAGTGCAG", "binding signal": "11500 fluorescence intensity (a.u.)"}, {"sequence": "CTGGTAAATTTGCTTGGTCACTGACGGAGTGTACGCAGCACGGAGTCACCTAGTGCAG", "binding signal": "14100 fluorescence intensity (a.u.)"}, {"sequence": "TCACTTCAATTATTCGCTTTGGATTTATCGCTTCTGGAAACGGAGTCACCTAGTGCAG", "binding signal": "4700 fluorescence intensity (a.u.)"}, {"sequence": "CCTTAATTACATTGTATATAGTGATGTATGATTTATTTTACGGAGTCACCTAGTGCAG", "binding signal": "14700 fluorescence intensity (a.u.)"}, {"sequence": "CCGGTAATCTCACTGTTAATCTCGCGTTTGACTATGTCGCCGGAGTCACCTAGTGCAG", "binding signal": "6970 fluorescence intensity (a.u.)"}, {"sequence": "ACCTAATTAACCCGGCCTTAATTTCTTTCTTCTCCACCTCCGGAGTCACCTAGTGCAG", "binding signal": "38100 fluorescence intensity (a.u.)"}, {"sequence": "AATTAATTGGAAAGTTCATTTGGGCCACGTGCCAAATACACGGAGTCACCTAGTGCAG", "binding signal": "22900 fluorescence intensity (a.u.)"}, {"sequence": "CACTAAATTTTAACACCTTCAGCGAATTTCTGTGCACGGCCGGAGTCACCTAGTGCAG", "binding signal": "8790 fluorescence intensity (a.u.)"}, {"sequence": "TTACACCAAAGTTTATGCAATTAGGAATAATTGCATTGGACGGAGTCACCTAGTGCAG", "binding signal": "3590 fluorescence intensity (a.u.)"}, {"sequence": "GTTCATCAATCTACTGTACTGGCCTCCTTCTCAGCTCTCACGGAGTCACCTAGTGCAG", "binding signal": "7190 fluorescence intensity (a.u.)"}, {"sequence": "TCGGTCCTAATGTAATTACTTCTAATAGTACAAAGAGTTACGGAGTCACCTAGTGCAG", "binding signal": "7030 fluorescence intensity (a.u.)"}, {"sequence": "CACCAGTGATCTTATAATTGTAAATTTTGATCCAAGATTCCGGAGTCACCTAGTGCAG", "binding signal": "3800 fluorescence intensity (a.u.)"}, {"sequence": "AAGATTTGCTGGGAGGGTGGGGTGGGGATTAGTCCCTAAACGGAGTCACCTAGTGCAG", "binding signal": "7320 fluorescence intensity (a.u.)"}, {"sequence": "TTTGATGATGGATGGGCAGATGCGTGGTGGTCCTGAATCTCGGAGTCACCTAGTGCAG", "binding signal": "21100 fluorescence intensity (a.u.)"}, {"sequence": "CTCTAACTTTATTGACAAGGCATTCTCTTAGTCCTGTAGGCGGAGTCACCTAGTGCAG", "binding signal": "15800 fluorescence intensity (a.u.)"}, {"sequence": "GGAAATTGAAGGGGAGTAAGAGTAGGAATACGGTGCAAATCGGAGTCACCTAGTGCAG", "binding signal": "15300 fluorescence intensity (a.u.)"}, {"sequence": "TGTGATCATATCACAGATTGGATAAGTAAATCATAAGAAACGGAGTCACCTAGTGCAG", "binding signal": "3290 fluorescence intensity (a.u.)"}, {"sequence": "TAATTAAATTTTAGTAATTCATAGGGCGTTAATGCTTTTCCGGAGTCACCTAGTGCAG", "binding signal": "5080 fluorescence intensity (a.u.)"}, {"sequence": "ATGAAATTAGTTTGTTCATTCGTATTCGAAAACCCCTTCCCGGAGTCACCTAGTGCAG", "binding signal": "7400 fluorescence intensity (a.u.)"}, {"sequence": "TTCCTAATTAATAGATAAACTGACATGCCGCATCCTCTTTCGGAGTCACCTAGTGCAG", "binding signal": "27000 fluorescence intensity (a.u.)"}, {"sequence": "TTTTGACTAATAATTAATTCACATACAACTACATTTAGGGCGGAGTCACCTAGTGCAG", "binding signal": "20800 fluorescence intensity (a.u.)"}, {"sequence": "AGTCACACCAGCATTTGCTAATTGGCTGCTCATCTGCTGTCGGAGTCACCTAGTGCAG", "binding signal": "3980 fluorescence intensity (a.u.)"}, {"sequence": "GCATTCTACTCTTTTGATTAGGACTAATAATAAGATGAAACGGAGTCACCTAGTGCAG", "binding signal": "6860 fluorescence intensity (a.u.)"}]}]}
